The source of these data is patent publication US20240076343A1.

Assay in all cases: cell-based or functional assay
Test [1] deals with intermediate affinity hIL-2 receptor (hIL-2Rβγ) on TF1+IL-2Rβ cells (human) (UniProt P14784).
The target of test [2] is intermediate affinity hIL-2 receptor complex (IL-2Rβγ) (human) (UniProt P14784).
Test [3] concerns the target high-affinity hIL-2 receptor (IL-2Rαβγ) on NK-92 cells (human) (UniProt P01589).
The target of test [4] is high-affinity hIL-2 receptor (IL-2Rαβγ) (human) (UniProt P01589).

Bounds are passed on as bounds.

B1: 1H3-hIgG1-L6-hIL-2 (D20A/Y45E) (protein)
heavy: EVQLVESGGGLVQPGRSLKLSCAVSGFTFSDYAMAWVRQAPKKGLEWVATISYDGSRTYYRDSVKGRFTISRDNAKITLYLQMDSLRSEDTATYYCARHGSGYFDYWGQGVMVTVSS[not shown - about 450 residues with a human IgG1 Fc and changes]
light: DTVLTQSPALAVSPGERVTISCRASESVRTGVHWYQQKPGQQPKLLIYGASNLESGVPARFSGSGSGTDFTLTIDPVEADDTATYFCQQSWNDPFTFGSGTKLEIKRTVAAPSVFIFPPSDEQLKSGTASVVCLLNNFYPREAKVQWKVDNALQSGNSQESVTEQDSKDSTYSLSSTLTLSKADYEKHKVYACEVTHQGLSSPVTKSFNRGEC
For the molecule B1, in test [1], the Agonistic Activity (TF1 + IL-2Rβ) came out at 70% and the Fold change from rhIL-2 (TF1 + IL-2Rβ) stood at 486 fold. In test [2], the Fold change from hIL-2 (TF1 + IL-2Rβ), pSTAT5 fixed conc. was found to be 3 fold and the Fold change from rhIL-2 (TF1 + IL-2Rβ), pSTAT5 titration was 32 fold. Moreover, in test [3], the Agonistic Activity (NK-92) amounted to 60% and the Fold change from rhIL-2 (NK-92) is 1410 fold. Further, in test [4], the Fold change from hIL-2 (NK-92), pSTAT5 fixed conc. stood at 18 fold and the Fold change from rhIL-2 (NK-92), pSTAT5 titration turned out to be 4720 fold.

B2: 1H3-hIgG1-L6-hIL-2 (D20A/Y45M) (protein)
heavy: EVQLVESGGGLVQPGRSLKLSCAVSGFTFSDYAMAWVRQAPKKGLEWVATISYDGSRTYYRDSVKGRFTISRDNAKITLYLQMDSLRSEDTATYYCARHGSGYFDYWGQGVMVTVSS[not shown - about 450 residues with a human IgG1 Fc and changes]
light: B1 light
With B2, in test [1], the Agonistic Activity (TF1 + IL-2Rβ) came out at 60% and the Fold change from rhIL-2 (TF1 + IL-2Rβ) stood at 449 fold. In addition, the Fold change from hIL-2 (TF1 + IL-2Rβ), pSTAT5 fixed conc. in test [2] came to 3 fold. Also, in test [3], the Fold change from rhIL-2 (NK-92) was 107 fold. Besides, the Fold change from hIL-2 (NK-92), pSTAT5 fixed conc. in test [4] amounted to 16 fold.

B3: 1H3-hIgG1-L6-hIL-2 (D20A/F42W) (protein)
heavy: EVQLVESGGGLVQPGRSLKLSCAVSGFTFSDYAMAWVRQAPKKGLEWVATISYDGSRTYYRDSVKGRFTISRDNAKITLYLQMDSLRSEDTATYYCARHGSGYFDYWGQGVMVTVSS[not shown - about 450 residues with a human IgG1 Fc and changes]
light: B1 light
For B3, in test [1], the Agonistic Activity (TF1 + IL-2Rβ) came out at 70% and the Fold change from rhIL-2 (TF1 + IL-2Rβ) came to 400 fold. Moreover, the Fold change from hIL-2 (TF1 + IL-2Rβ), pSTAT5 fixed conc. in test [2] came out at 2 fold. Besides, in test [3], the Agonistic Activity (NK-92) worked out at 70% and the Fold change from rhIL-2 (NK-92) was determined as 414 fold. Also, in test [4], the Fold change from hIL-2 (NK-92), pSTAT5 fixed conc. worked out at 16 fold.

B4: 1H3-hIgG1-L6-hIL-2 (D20A/Y45D) (protein)
heavy: EVQLVESGGGLVQPGRSLKLSCAVSGFTFSDYAMAWVRQAPKKGLEWVATISYDGSRTYYRDSVKGRFTISRDNAKITLYLQMDSLRSEDTATYYCARHGSGYFDYWGQGVMVTVSS[not shown - about 450 residues with a human IgG1 Fc and changes]
light: B1 light
Regarding B4, in test [1], the Agonistic Activity (TF1 + IL-2Rβ) is 70% and the Fold change from rhIL-2 (TF1 + IL-2Rβ) stood at 729 fold. For the same molecule, the Fold change from hIL-2 (TF1 + IL-2Rβ), pSTAT5 fixed conc. in test [2] was found to be 3 fold. In test [3], this molecule had an Agonistic Activity (NK-92) of 60% and a Fold change from rhIL-2 (NK-92) of 363 fold. Also, the Fold change from hIL-2 (NK-92), pSTAT5 fixed conc. in test [4] was determined as 18 fold.

B5: 1H3-hIgG1-L6-hIL-2 (I92D/F42K) (protein)
heavy: EVQLVESGGGLVQPGRSLKLSCAVSGFTFSDYAMAWVRQAPKKGLEWVATISYDGSRTYYRDSVKGRFTISRDNAKITLYLQMDSLRSEDTATYYCARHGSGYFDYWGQGVMVTVSS[not shown - about 450 residues with a human IgG1 Fc and changes]
light: B1 light
For the molecule B5, the Fold change from rhIL-2 (TF1 + IL-2Rβ) in test [1] turned out to be 848 fold. Also, in test [2], the Fold change from hIL-2 (TF1 + IL-2Rβ), pSTAT5 fixed conc. was 4 fold and the Fold change from rhIL-2 (TF1 + IL-2Rβ), pSTAT5 titration came to 58 fold. In test [3], this molecule displayed an Agonistic Activity (NK-92) of 20% and a Fold change from rhIL-2 (NK-92) greater than 10000 fold. In test [4], this molecule registered a Fold change from hIL-2 (NK-92), pSTAT5 fixed conc. of 26 fold and a Fold change from rhIL-2 (NK-92), pSTAT5 titration greater than 10000 fold.

B6: 1H3-hIgG1-L6-hIL-2 (D20A/Y45G) (protein)
heavy: EVQLVESGGGLVQPGRSLKLSCAVSGFTFSDYAMAWVRQAPKKGLEWVATISYDGSRTYYRDSVKGRFTISRDNAKITLYLQMDSLRSEDTATYYCARHGSGYFDYWGQGVMVTVSS[not shown - about 450 residues with a human IgG1 Fc and changes]
light: B1 light
Consider B6, for which, in test [1], the Agonistic Activity (TF1 + IL-2Rβ) was found to be 60% and the Fold change from rhIL-2 (TF1 + IL-2Rβ) was 392 fold. Besides, in test [2], the Fold change from hIL-2 (TF1 + IL-2Rβ), pSTAT5 fixed conc. amounted to 2 fold. In test [3], this molecule showed an Agonistic Activity (NK-92) of 80% and a Fold change from rhIL-2 (NK-92) of 613 fold. In test [4], this molecule showed a Fold change from hIL-2 (NK-92), pSTAT5 fixed conc. of 18 fold.

B7: 1H3-hIgG1-L6-hIL-2 (I92D/F42Q) (protein)
heavy: EVQLVESGGGLVQPGRSLKLSCAVSGFTFSDYAMAWVRQAPKKGLEWVATISYDGSRTYYRDSVKGRFTISRDNAKITLYLQMDSLRSEDTATYYCARHGSGYFDYWGQGVMVTVSS[not shown - about 450 residues with a human IgG1 Fc and changes]
light: B1 light
With B7, in test [1], the Fold change from rhIL-2 (TF1 + IL-2Rβ) amounted to 872 fold. In test [2], the Fold change from hIL-2 (TF1 + IL-2Rβ), pSTAT5 fixed conc. is 4 fold and the Fold change from rhIL-2 (TF1 + IL-2Rβ), pSTAT5 titration came to 24 fold. In test [3], the Agonistic Activity (NK-92) was found to be 30% and the Fold change from rhIL-2 (NK-92) worked out at 7230 fold. Moreover, in test [4], the Fold change from hIL-2 (NK-92), pSTAT5 fixed conc. turned out to be 29 fold and the Fold change from rhIL-2 (NK-92), pSTAT5 titration was greater than 10000 fold.

B8: 1H3-hIgG1-L6-hIL-2 (D20A/Y45N) (protein)
heavy: EVQLVESGGGLVQPGRSLKLSCAVSGFTFSDYAMAWVRQAPKKGLEWVATISYDGSRTYYRDSVKGRFTISRDNAKITLYLQMDSLRSEDTATYYCARHGSGYFDYWGQGVMVTVSS[not shown - about 450 residues with a human IgG1 Fc and changes]
light: B1 light
As to B8, in test [1], the Agonistic Activity (TF1 + IL-2Rβ) was 70% and the Fold change from rhIL-2 (TF1 + IL-2Rβ) was 390 fold. For the same molecule, the Fold change from hIL-2 (TF1 + IL-2Rβ), pSTAT5 fixed conc. in test [2] turned out to be 2 fold. For the same molecule, the Fold change from rhIL-2 (NK-92) in test [3] amounted to 31 fold. The Fold change from hIL-2 (NK-92), pSTAT5 fixed conc. in test [4] was determined as 14 fold.

B9: 1H3-hIgG1-L6-hIL-2 (D20A/Y45A) (protein)
heavy: EVQLVESGGGLVQPGRSLKLSCAVSGFTFSDYAMAWVRQAPKKGLEWVATISYDGSRTYYRDSVKGRFTISRDNAKITLYLQMDSLRSEDTATYYCARHGSGYFDYWGQGVMVTVSS[not shown - about 450 residues with a human IgG1 Fc and changes]
light: B1 light
Consider B9, for which, in test [1], the Agonistic Activity (TF1 + IL-2Rβ) was found to be 80% and the Fold change from rhIL-2 (TF1 + IL-2Rβ) turned out to be 554 fold. For the same molecule, the Fold change from hIL-2 (TF1 + IL-2Rβ), pSTAT5 fixed conc. in test [2] came out at 2 fold. Moreover, in test [3], the Agonistic Activity (NK-92) was determined as 80% and the Fold change from rhIL-2 (NK-92) came to 61 fold. Also, the Fold change from hIL-2 (NK-92), pSTAT5 fixed conc. in test [4] worked out at 15 fold.

B10: 1H3-hIgG1-L6-hIL-2 (D20A/Y45Q) (protein)
heavy: EVQLVESGGGLVQPGRSLKLSCAVSGFTFSDYAMAWVRQAPKKGLEWVATISYDGSRTYYRDSVKGRFTISRDNAKITLYLQMDSLRSEDTATYYCARHGSGYFDYWGQGVMVTVSS[not shown - about 450 residues with a human IgG1 Fc and changes]
light: B1 light
For the molecule B10, in test [1], the Agonistic Activity (TF1 + IL-2Rβ) was found to be 70% and the Fold change from rhIL-2 (TF1 + IL-2Rβ) stood at 348 fold. In addition, the Fold change from hIL-2 (TF1 + IL-2Rβ), pSTAT5 fixed conc. in test [2] was 3 fold. In test [3], this molecule came in with an Agonistic Activity (NK-92) of 70% and a Fold change from rhIL-2 (NK-92) of 730 fold. The Fold change from hIL-2 (NK-92), pSTAT5 fixed conc. in test [4] worked out at 17 fold.
